{
  "source": "PubChem BioAssay AID485294",
  "about": "(National Center for Advancing Translational Sciences (NCATS), 2010)",
  "note": "Among all 370,000 compounds or so, about 150 (0.041%) were called active. Inconclusive results, whose numbers are uncertain, are shown with a selection of clear calls. Calls come from the whole dose curve; as a rule, active = well fitted inhibition curve with a large enough effect; inconclusive = small, poorly fitted or top-dose-only effect; inactive = flat fitted curve, though single readings scatter. Potencies of inconclusive entries are left out as doubtful fits. Potency is the fitted concentration of half-maximal effect; tags give direction and shape of the fitted curve.",
  "data": [
    {"target": "Beta-lactamase (Escherichia coli (strain K12)) (UniProt P00811)", "sequence (P00811 whole entry, looked up)": "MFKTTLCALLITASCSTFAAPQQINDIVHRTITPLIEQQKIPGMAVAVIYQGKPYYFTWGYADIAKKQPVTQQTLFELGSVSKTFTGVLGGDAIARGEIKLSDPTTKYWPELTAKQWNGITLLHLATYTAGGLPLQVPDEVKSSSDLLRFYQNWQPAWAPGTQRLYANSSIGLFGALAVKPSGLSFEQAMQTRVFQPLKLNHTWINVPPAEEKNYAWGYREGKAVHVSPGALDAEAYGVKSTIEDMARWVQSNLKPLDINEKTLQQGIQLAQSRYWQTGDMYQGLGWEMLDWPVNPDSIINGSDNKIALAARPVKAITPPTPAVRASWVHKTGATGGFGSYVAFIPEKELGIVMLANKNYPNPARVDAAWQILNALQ", "assay": "qHTS Inhibitors of AmpC Beta-Lactamase (assay with detergent); note: nearly all actives have a fitted effect of over 25% in size", "conditions": "AmpC hydrolysis of nitrocefin, absorbance 480 nm, 0.01% Triton; series mostly up to 114 µM", "outline": "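AmpC (5.3 nM in the dispensed reagent) in 20 mM phosphate pH 7.0 with 0.01% (detergent screen) or 0.0001% Triton X-100 was preincubated with compounds for 15 min at room temperature. Nitrocefin was then added from an 800 uM solution, and hydrolysis was followed at 480 nm.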", "values": [
      {"smiles": "COc1ccc2c(c1)N(C(=O)CSc1n[nH]c(C)n1)C(C)(C)C=C2C", "Potency": "inconclusive [inhibitor, full curve, poor fit]"},
      {"smiles": "Cc1ccc(N(C(=O)Cn2nnc(-c3ccc(F)cc3)n2)C(CC(C)C)C(=O)NCC2CCCO2)cc1", "note": "(stereo not given)", "Potency": "inconclusive [inhibitor, full curve, poor fit]"},
      {"smiles": "O=C(Cn1ccccc1=O)NCc1ccc(F)cc1", "Potency": "inconclusive [inhibitor, full curve, poor fit]"},
      {"smiles": "COCCNC(=O)c1cc2cc(Cl)cc(Cl)c2oc1=O", "Potency": "inconclusive [inhibitor, single point]"},
      {"smiles": "CCCC(=O)Oc1c(Sc2ccc(Cl)cc2)c(C)nn1-c1ccccc1", "Potency": "inactive"},
      {"smiles": "COc1cccc(NC(=O)CN(C)C(=O)c2cccc(NS(=O)(=O)c3ccccc3)c2)c1", "Potency": "inconclusive [inhibitor, single point]"},
      {"smiles": "Cc1cc(NC(=O)CSc2cn(CCNC(=O)c3ccc(F)cc3)c3ccccc23)no1", "Potency": "inconclusive [inhibitor, partial curve]"},
      {"smiles": "CC(C)(C)NC(=O)CN(Cc1ccc2c(c1)OCO2)C(=O)CNS(=O)(=O)c1ccccc1", "Potency": "inactive"},
      {"smiles": "CCOc1ccc(NC(=O)c2c(OC)cccc2OC)cc1", "Potency": "inconclusive [inhibitor, partial curve]"},
      {"smiles": "Cc1ccc(CN2C(=O)c3ccccc3S(=O)(=O)c3ccc(C(=O)OCC4CCCO4)cc32)cc1", "note": "(stereo not given)", "Potency": "inactive"},
      {"smiles": "CN(C)C(=O)c1ccc2c(c1)N(CC(=O)NCc1ccc(F)cc1)C(=O)C1CCCCN21", "note": "(stereo not given)", "Potency": "inactive"},
      {"smiles": "COc1cccc(-c2cc(C(=O)NCc3ccccc3)[nH]n2)c1", "Potency": "inactive"},
      {"smiles": "Cc1ccc(CSc2nc3c(c(N(C)C)n2)CCCC3)cc1", "Potency": "inactive"},
      {"smiles": "CCCCCc1c(C)nc(Nc2nc(C)c3cc(OC)ccc3n2)[nH]c1=O", "Potency": "inconclusive [inhibitor, full curve, poor fit]"},
      {"smiles": "CC(C)Oc1ccc2ccccc2c1C=O", "Potency": "inconclusive [inhibitor, full curve]"},
      {"smiles": "O=C(CSc1nc2ccccc2c(=O)n1Cc1ccco1)N1CCCCCC1", "Potency": "inactive"},
      {"smiles": "CCNc1nc(NCC)n2c(SCC(=O)Nc3ccc(F)cc3[N+](=O)[O-])nnc2n1", "Potency": "inconclusive [inhibitor, single point]"},
      {"smiles": "O=C(O)CCNS(=O)(=O)c1cccc2nsnc12", "Potency": "inconclusive [inhibitor, full curve]"},
      {"smiles": "COc1ccc2c(c1OC)C(=O)O[C@@H]2[C@H]1c2cc3c(cc2CCN1C)OCO3", "Potency": "inactive"},
      {"smiles": "O=C1CC(c2cccc(F)c2)C2=C(CCCC2=O)N1", "note": "(stereo not given)", "Potency": "inconclusive [inhibitor, partial curve, poor fit]"},
      {"smiles": "CCCCC(=O)N/N=C(\\C)CC(=O)Nc1ccccc1Br", "Potency": "inconclusive [inhibitor, partial curve]"},
      {"smiles": "CCCCN(CC)CCCn1cnc2c([nH]c3ccc(Cl)cc32)c1=O", "Potency": "inactive"},
      {"smiles": "O=C(NC1CCCC1)C(c1ccc(F)cc1)N(Cc1ccc(Cl)cc1)C(=O)CCl", "note": "(stereo not given)", "Potency": "inconclusive [inhibitor, full curve]"},
      {"smiles": "Cc1ccc(NC(=O)C2CCCN(S(=O)(=O)c3cnc[nH]3)C2)c(Br)c1", "note": "(stereo not given)", "Potency": "inconclusive [inhibitor, full curve, poor fit]"},
      {"smiles": "COc1ccc(C2C(C#N)=C3NC(=O)c4c(sc5c4CCCCC5)N3C3=C2C(=O)CC(C)(C)C3)cc1", "note": "(stereo not given)", "Potency": "inconclusive [inhibitor, full curve]"},
      {"smiles": "COc1ccccc1CN1CCN(C(=O)c2ccncc2)CC1", "Potency": "inconclusive [inhibitor, full curve, poor fit]"},
      {"smiles": "CCC(C)NC(=O)C1CCN(C(=O)c2cc3sccc3n2Cc2ccc(Cl)cc2)CC1", "note": "(stereo not given)", "Potency": "inactive"},
      {"smiles": "CC(=O)Nc1ccc(S(=O)(=O)NCCN2CCNC2=O)cc1Cl", "Potency": "inactive"},
      {"smiles": "CCc1ccccc1N1CC(c2nc3ccccc3n2CC(C)C)CC1=O", "note": "(stereo not given)", "Potency": "inactive"},
      {"smiles": "CC(C)c1ccc(Nc2cc(C(=O)NCCc3ccccc3)c3ccccc3n2)cc1", "Potency": "inactive"},
      {"smiles": "O=C(NC1CCCC1)C(c1cccnc1)N(C(=O)c1csnn1)c1ccccc1Cl", "note": "(stereo not given)", "Potency": "inconclusive [inhibitor, full curve, poor fit]"},
      {"smiles": "O=C(Nc1ccc(N2CCCCCC2)cc1)c1ccccc1Cl", "Potency": "inactive"},
      {"smiles": "CCCC(=O)Nc1nnc(SCc2cc(=O)c3cc(C)ccc3[nH]2)s1", "Potency": "inactive"},
      {"smiles": "Cc1ccccc1C(=O)N1CCCN(C(=O)c2ccccc2C)CC1", "Potency": "inconclusive [inhibitor, full curve]"},
      {"smiles": "CCOC(=O)CSC(CC)C(=O)Nc1nnc(CC)s1", "note": "(stereo not given)", "Potency": "inconclusive [inhibitor, full curve, poor fit]"},
      {"smiles": "COc1ccc2c(c1)c(=O)c(C(=O)c1ccc(F)cc1)cn2CC(=O)Nc1ccc(F)cc1", "Potency": "inconclusive [inhibitor, full curve]"},
      {"smiles": "CCCCn1c(SCC(=O)c2ccc(OC)c(OC)c2)nc2cc(S(N)(=O)=O)ccc21", "Potency": "inconclusive [inhibitor, partial curve, poor fit]"},
      {"smiles": "CCc1cccc2c(C(=O)COC(=O)c3ccc(O)cc3)c[nH]c12", "Potency": "inactive"},
      {"smiles": "Cc1cc(C)c2c(=O)n(CC(=O)Nc3ccc(Br)c(C)c3)sc2n1", "Potency": "inconclusive [inhibitor, partial curve]"},
      {"smiles": "Cc1cc(Cl)c(S(=O)(=O)N2CCN(c3cccc(C)c3C)CC2)cc1OCC(N)=O", "Potency": "inconclusive [inhibitor, partial curve, poor fit]"},
      {"smiles": "CCn1nc(-c2ccccc2)nc2c(=O)n(C)c(=O)nc1-2", "Potency": "inactive"},
      {"smiles": "CCCCCCc1ccc(N2C[C@H](CCCCC)[C@@H](CC(=O)NCc3ccccc3)C2=O)cc1", "Potency": "inconclusive [inhibitor, full curve, poor fit]"},
      {"smiles": "COc1ccc(OCCOC(=O)CNS(=O)(=O)c2ccc(SC)c([N+](=O)[O-])c2)cc1", "Potency": "inactive"},
      {"smiles": "CN1C(=S)SC(/[N+]([O-])=C\\c2cccs2)C1(C)C", "note": "(stereo not given)", "Potency": "inconclusive [inhibitor, partial curve, poor fit]"},
      {"smiles": "Cc1cccc(C)c1OCC(=O)N/N=C/C=C/c1ccco1", "Potency": "inactive"},
      {"smiles": "Cc1[nH]c2ccccc2c1CC(=O)O", "Potency": "inconclusive [inhibitor, full curve, poor fit]"},
      {"smiles": "O=C(Nc1ccc2c(c1)CCC2)C1COc2ccccc2O1", "note": "(stereo not given)", "Potency": "inactive"},
      {"smiles": "Cc1cc(NC(=O)CN2CCN(S(=O)(=O)c3ccc(Cl)cc3)CC2)no1", "Potency": "inactive"},
      {"smiles": "COc1cccc(C2=NN(C(C)=O)C(c3cn(-c4ccccc4)nc3-c3cccs3)C2)c1", "note": "(stereo not given)", "Potency": "inactive"},
      {"smiles": "COc1ccc(S(=O)(=O)NC2CCCC2)cc1C(N)=O", "Potency": "inconclusive [inhibitor, full curve, poor fit]"},
      {"smiles": "OC(COc1ccc(OCC(O)CN2CCCCC2)cc1)CN1CCCCC1", "note": "(stereo not given)", "Potency": "inconclusive [inhibitor, full curve, poor fit]"},
      {"smiles": "CCc1nc2sc3c(c2c(=O)n1N)CC(C)(C)OC3", "Potency": "inconclusive [inhibitor, partial curve, poor fit]"},
      {"smiles": "CC1CC(C)CN(CC(=O)NNC(=O)COc2ccc(Cl)cc2)C1", "note": "(stereo not given)", "Potency": "inconclusive [inhibitor, full curve]"},
      {"smiles": "O=C(c1ccc2c(Cl)c3c(nc2c1)CCCC3)N1CCC(N2CCCCC2)CC1", "Potency": "inconclusive [inhibitor, partial curve, poor fit]"},
      {"smiles": "O=C(O)c1nn(Cc2ccc(Cl)cc2Cl)c2ccccc12", "Potency": "inconclusive [inhibitor, full curve, poor fit]"},
      {"smiles": "Cc1cccc(N2CCN(C(=O)c3ccc(-n4cncn4)c([N+](=O)[O-])c3)CC2)c1C", "Potency": "inactive"},
      {"smiles": "O=C(NCCN1CCCCC1)Nc1ccc(F)c(Cl)c1", "Potency": "inconclusive [inhibitor, single point]"},
      {"smiles": "CNS(=O)(=O)c1ccc2nc(NC(=O)c3ccc(N4C(=O)CCC4=O)cc3)sc2c1", "Potency": "inactive"},
      {"smiles": "CC(=O)Nc1ccc(N=Nc2c(C)[nH]n(C(N)=S)c2=O)cc1", "Potency": "inactive"},
      {"smiles": "C/C(=N\\NC(=O)c1c(Cl)cnn1C)c1ccc(NC(=O)c2ccc(Br)o2)cc1", "Potency": "inconclusive [inhibitor, single point]"},
      {"smiles": "CCCc1cc(=O)c2ccc(OCC(C)=O)cc2o1", "Potency": "inconclusive [inhibitor, full curve, poor fit]"},
      {"smiles": "NC(=O)c1ccsc1NC(=O)COC(=O)/C=C/c1ccccc1", "Potency": "inactive"},
      {"smiles": "CCc1cccc(CC)c1NC(=O)c1ccccc1", "Potency": "inconclusive [inhibitor, full curve, poor fit]"},
      {"smiles": "CN1CCN(S(=O)(=O)c2cccc(C(=O)N(C)Cc3c(F)cccc3Cl)c2)CC1", "Potency": "inconclusive [inhibitor, full curve, poor fit]"},
      {"smiles": "Cc1cccc(OCC(=O)N(Cc2cccc(Cl)c2)Cc2ccco2)c1C", "Potency": "inactive"},
      {"smiles": "CC(=O)Nc1ccc(/C=C/C(=O)c2ccc3c(c2)OCCO3)cc1", "Potency": "inconclusive [inhibitor, partial curve]"},
      {"smiles": "CC[n+]1c(/C=C(\\C)Nc2ccccc2)sc2ccccc21", "Potency": "inconclusive [inhibitor, partial curve, poor fit]"},
      {"smiles": "Nc1nonc1-n1nnc(C(=O)N/N=C/c2ccccc2F)c1-c1cccs1", "Potency": "inconclusive [inhibitor, full curve, poor fit]"},
      {"smiles": "CCC(O)C1CCN(C(=O)c2cc(COc3ccc4ncccc4c3)on2)CC1", "note": "(stereo not given)", "Potency": "inconclusive [inhibitor, full curve, poor fit]"},
      {"smiles": "Cc1cc(C)c(NC(=O)CCCCCNC2CCCCC2)c(C)c1", "Potency": "inactive"}
    ]}
  ]
}
